{"source": "PubChem BioAssay AID1508642", "about": "(National Center for Advancing Translational Sciences (NCATS), 2021)", "note": "The whole screen tested about 43,000 compounds, of which about 200 (0.47%) were called active. Roughly 12% stayed inconclusive and do not appear here. Calls follow the shape of the dose curve; as a rule, active = well fitted cell-killing curve with a large enough effect; inconclusive = small, poorly fitted or top-dose-only effect, or effect the other way; inactive = flat fitted curve, though single readings scatter. The list shows a part of the results. % is scaled to controls: 0 for no effect and ±100 for the full control effect.", "data": [{"assay": "Cell viability qHTS assay in S16 Pmp22-F2sN cells; also: nearly all actives have a fitted effect of over 65% in size", "settings": "S16 Pmp22-F2sN Schwann cells viability, CellTiter-Glo, 24 h; series mostly up to 57.5 µM; activity change, negative = cytotoxicity: at the top concentration", "how_it_was_run": "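Viability was measured by CellTiter-Glo luminescence (15 min, room temperature). This followed 24 h at 37 °C of compound exposure (23 nL pin transfer) in S16 Pmp22-F2sN Schwann cells, 500-1,000 per well.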", "values": [{"smiles": "CCc1cccc(NC(=O)CCN2C(=O)c3ccccc3Sc3ncccc32)c1", "activity change, negative = cytotoxicity": "inactive: -11%"}, {"smiles": "CCOC(=O)c1cccc(NC(=O)C2CCCN(S(=O)(=O)c3cc(Br)cc4c3N(C(=O)CC)CC4)C2)c1", "note": "(configuration not stated)", "activity change, negative = cytotoxicity": "inactive: -0.283%"}, {"smiles": "COc1ccc(CN(C(=O)Cc2coc3ccc(C)cc23)C2CCS(=O)(=O)C2)cc1", "note": "(configuration not stated)", "activity change, negative = cytotoxicity": "inactive: -0.23%"}, {"smiles": "Cc1cc(=O)n2nc(N(C)CC(=O)NCc3ccc(Cl)cc3)sc2n1", "activity change, negative = cytotoxicity": "inactive: 5.58%"}, {"smiles": "Cn1ncc(C(=O)N2CCN(c3ccccc3F)CC2)c1C1CCN(C(=O)OC(C)(C)C)CC1", "activity change, negative = cytotoxicity": "inactive: -0.765%"}, {"smiles": "Cc1cc(SCC(=O)NCc2ccc(F)cc2)nc(=O)[nH]1", "activity change, negative = cytotoxicity": "inactive: -6.26%"}, {"smiles": "CC(=O)c1ccc(NC(=O)CSc2nccn2Cc2ccc3c(c2)OCO3)cc1", "activity change, negative = cytotoxicity": "inactive: -14.7%"}, {"smiles": "COc1cc(NC(=O)c2ncn(-c3ccccc3)n2)cc(OC)c1", "activity change, negative = cytotoxicity": "inactive: 2.78%"}, {"smiles": "O=C(COCc1cc(-c2ccco2)on1)Nc1cccc(Cl)c1Cl", "activity change, negative = cytotoxicity": "inactive: 6.9%"}, {"smiles": "CCOc1ccccc1-n1nnc(S(=O)(=O)c2ccc(C)cc2)c1N", "activity change, negative = cytotoxicity": "inactive: -14.3%"}, {"smiles": "Cc1ccc(NC(=O)c2nc(-c3ccncc3)no2)c(Cl)c1", "activity change, negative = cytotoxicity": "inactive: 7.59%"}, {"smiles": "COc1ccc(C2N3CC4(C)CN2CC(c2ccccc2)(C3)C4=O)cc1", "note": "(configuration not stated)", "activity change, negative = cytotoxicity": "inactive: 1.47%"}, {"smiles": "CCCCN(CC)CCCNC(=O)c1cn(CC)c2ccc(S(=O)(=O)N3CCOCC3)cc2c1=O", "activity change, negative = cytotoxicity": "inactive: -1.32%"}, {"smiles": "CC(C)c1ccc(NC(=O)CCNS(=O)(=O)c2cccc3nsnc23)cc1", "activity change, negative = cytotoxicity": "inactive: 4.83%"}, {"smiles": "COc1ccc(C(=O)Oc2ccc(C(c3c(C)[nH][nH]c3=O)c3c(C)[nH][nH]c3=O)cc2OC)cc1", "activity change, negative = cytotoxicity": "inactive: 6.62%"}, {"smiles": "CN1CCN(CCC(=O)Nc2ccc(Cl)cc2)CC1", "activity change, negative = cytotoxicity": "inactive: -1.4%"}, {"smiles": "CCOc1ccc(NC(=O)c2oc3ccccc3c2NC(=O)Cc2cccc(C)c2)cc1", "activity change, negative = cytotoxicity": "inactive: 16.4%"}, {"smiles": "COc1ccc(OC)c(NS(=O)(=O)c2ccc(Br)s2)c1", "activity change, negative = cytotoxicity": "inactive: -0.858%"}, {"smiles": "O=C(COc1ccc(Cl)cc1)NCCc1csc(-c2cccc(F)c2)n1", "activity change, negative = cytotoxicity": "inactive: -1.26%"}, {"smiles": "CCCN1C(C(=O)c2ccccc2)=C(OC(=O)c2ccc(C)cc2)c2ccccc2S1(=O)=O", "activity change, negative = cytotoxicity": "inactive: -21.3%"}, {"smiles": "Cc1ccc(NC(=O)Cn2c(=O)ccc3cc(S(=O)(=O)N4CCC(C)CC4)ccc32)cc1C", "activity change, negative = cytotoxicity": "inactive: -0.758%"}, {"smiles": "Cc1cccc(NC(=O)CSc2nc(=O)n(Cc3cccnc3)c3c2CCC3)c1", "activity change, negative = cytotoxicity": "inactive: -20.8%"}, {"smiles": "CCOc1ccccc1CNc1nc2nc(C)c(CC(=O)OC)c(=O)n2[nH]1", "activity change, negative = cytotoxicity": "inactive: -9.35%"}, {"smiles": "Cc1cccc(-c2nc(C)c(CCNC(=O)C(=O)Nc3ccc(C)c(C)c3)s2)c1", "activity change, negative = cytotoxicity": "inactive: 11.7%"}, {"smiles": "Cc1ccc(-n2ncc3c(N4CCN(Cc5ccccc5)CC4)ncnc32)cc1", "activity change, negative = cytotoxicity": "inactive: 10.1%"}, {"smiles": "COc1ccc(Cl)cc1S(=O)(=O)N1CCN(C(=O)c2cc(-c3ccc(Br)cc3)n[nH]2)CC1", "activity change, negative = cytotoxicity": "inactive: -5.47%"}, {"smiles": "O=C(CSc1nc(=O)[nH]c2c1CCC2)NCc1ccc(F)cc1", "activity change, negative = cytotoxicity": "inactive: -2.68%"}, {"smiles": "O=C(CCS(=O)(=O)c1cccc2nonc12)Nc1ccc(F)cc1F", "activity change, negative = cytotoxicity": "inactive: 7.09%"}, {"smiles": "COc1ccccc1N1CCN(C(=O)c2ccc3c(c2)CCN3S(=O)(=O)c2ccccc2)CC1", "activity change, negative = cytotoxicity": "inactive: 6.65%"}, {"smiles": "Cc1ccc(-c2nnn3c2nc(NCc2ccc4c(c2)OCO4)c2ccccc23)cc1", "activity change, negative = cytotoxicity": "inactive: 3.97%"}, {"smiles": "Cc1ccc2nc(-c3c[nH]c4ccccc34)c(Nc3ccc(F)cc3)n2c1", "activity change, negative = cytotoxicity": "inactive: -8.44%"}, {"smiles": "Cc1ccc(CNC(=O)C(C)n2c(=O)cc(-c3ccccc3)c3c(C)nn(C)c32)cc1", "note": "(configuration not stated)", "activity change, negative = cytotoxicity": "inactive: -4.09%"}, {"smiles": "O=C(CC(c1cccs1)N1Cc2ccccc2C1=O)Nc1cccc(F)c1", "note": "(configuration not stated)", "activity change, negative = cytotoxicity": "inactive: 4.31%"}, {"smiles": "Cc1ccc(OCC(=O)Nc2nc(-c3ccc(Br)cc3)ns2)cc1", "activity change, negative = cytotoxicity": "inactive: 8.27%"}, {"smiles": "O=C(NCCc1ccc(F)cc1)C(=O)NCC(c1cccs1)S(=O)(=O)c1ccccc1", "note": "(configuration not stated)", "activity change, negative = cytotoxicity": "inactive: -5.89%"}, {"smiles": "COc1ccc2c(Sc3ccccc3)c(C(=O)NCc3cc(Br)ccc3OC)[nH]c2c1", "activity change, negative = cytotoxicity": "inactive: 6.67%"}, {"smiles": "COc1ccc(Cn2c(CCC(=O)Nc3ccccc3OC)nc3cccnc32)cc1", "activity change, negative = cytotoxicity": "inactive: 0.386%"}, {"smiles": "CC(=O)Nc1ccc(NC(=O)C2Cc3ccccc3N2C(=O)c2ccccc2)cc1", "note": "(configuration not stated)", "activity change, negative = cytotoxicity": "inactive: -1.99%"}, {"smiles": "COc1ccc2c(c1)c(=O)c(C(=O)c1ccc(Cl)cc1)cn2CC(=O)Nc1ccc2c(c1)OCCO2", "activity change, negative = cytotoxicity": "inactive: -11.2%"}, {"smiles": "CC(C)OCCCn1c(=O)c2ccccc2n2c(-c3ccccc3F)nnc12", "activity change, negative = cytotoxicity": "inactive: -2.3%"}, {"smiles": "Cc1oc2ccc(O)c(CN3CCCC(C)C3)c2c1C(=O)Nc1ccccc1", "note": "(configuration not stated)", "activity change, negative = cytotoxicity": "inactive: -3.48%"}, {"smiles": "O=C(CSc1cn(CCNC(=O)c2c(F)cccc2F)c2ccccc12)Nc1ccccc1F", "activity change, negative = cytotoxicity": "inactive: -6.05%"}, {"smiles": "COc1cccc2[nH]c(C(=O)NCc3ccc4c(c3)CCN4C(=O)c3ccc(F)cc3)cc12", "activity change, negative = cytotoxicity": "inactive: -6.39%"}, {"smiles": "CCc1c(C)nc2nc(-c3ccccc3)nn2c1NCc1ccc(C)cc1", "activity change, negative = cytotoxicity": "inactive: -16%"}, {"smiles": "COc1ccc(CNC(=O)c2ccc(-c3nc(CS(=O)c4ccc(C)cc4)c(C)o3)cc2)cc1", "note": "(configuration not stated)", "activity change, negative = cytotoxicity": "inactive: -18.8%"}, {"smiles": "COc1ccc(CNC(=O)CS(=O)(=O)c2cccc3nsnc23)cc1", "activity change, negative = cytotoxicity": "inactive: -5.33%"}, {"smiles": "Cc1ccc(OC(=O)CSc2nnc(-c3cccs3)o2)c(C)c1", "activity change, negative = cytotoxicity": "inactive: 0.437%"}, {"smiles": "CC1=C(C(=O)OC2CCCCCC2)C(c2ccc(Cl)cc2)CC(=O)N1", "note": "(configuration not stated)", "activity change, negative = cytotoxicity": "inactive: 30%"}, {"smiles": "COc1ccc(Cl)cc1C(=O)NCc1nc(-c2cccc(C)c2)no1", "activity change, negative = cytotoxicity": "inactive: -15.2%"}, {"smiles": "O=C(c1ccc([N+](=O)[O-])cc1)N1c2ncnn2C2(CCCCC2)[C@@H]2CCCC[C@@H]21", "activity change, negative = cytotoxicity": "inactive: -3.98%"}, {"smiles": "COc1cccc(NC(=O)C2CCN(c3nnc(-n4c(C)ccc4C)s3)CC2)c1", "activity change, negative = cytotoxicity": "inactive: 18.1%"}, {"smiles": "Cc1cc2c(cc1S(=O)(=O)Nc1cccc(Cl)c1C)OCCN2C", "activity change, negative = cytotoxicity": "inactive: -8.82%"}, {"smiles": "Cc1ccc(Cl)cc1N1CCN(C(=O)COCc2cc(-c3ccc4c(c3)OCO4)on2)CC1", "activity change, negative = cytotoxicity": "inactive: -2.84%"}, {"smiles": "Cc1c(-c2nc(-c3ccc4c(c3)OCO4)no2)nnn1-c1cccc(C(F)(F)F)c1", "activity change, negative = cytotoxicity": "inactive: -1.89%"}, {"smiles": "CC1=C(C(=O)Nc2cccc(C(F)(F)F)c2)C2(CCN(C(C)C)CC2)OC1=O", "activity change, negative = cytotoxicity": "inactive: 25.9%"}, {"smiles": "Cc1ccc(NC(=O)CCn2cnc3onc(-c4ccc(F)cc4)c3c2=O)c(Br)c1", "activity change, negative = cytotoxicity": "inactive: 21.6%"}, {"smiles": "CC(C)Oc1ccc(CNS(=O)(=O)c2ccc(-c3cc(C(F)(F)F)on3)s2)cc1", "activity change, negative = cytotoxicity": "inactive: -0.774%"}, {"smiles": "Cc1ccc2nc(CN3CCN(S(=O)(=O)c4ccc(F)cc4)CC3)oc2c1", "activity change, negative = cytotoxicity": "inactive: -13.4%"}, {"smiles": "CCCNC(=O)CSc1cn(CC(=O)N2CCCCCC2)c2ccccc12", "activity change, negative = cytotoxicity": "inactive: 1.08%"}, {"smiles": "O=C(CSc1nc2sc3c(c2c(=O)[nH]1)CCCC3)Nc1ccccc1F", "activity change, negative = cytotoxicity": "inactive: -6.49%"}, {"smiles": "CCOc1ccc(-c2nnc(SCC(=O)Nc3cccc(Cl)c3C)o2)cc1", "activity change, negative = cytotoxicity": "inactive: -1.51%"}, {"smiles": "COc1ccc(CCNC(=O)CCn2c(=O)c3ccccc3n(Cc3ccccc3C)c2=O)cc1OC", "activity change, negative = cytotoxicity": "inactive: -0.178%"}]}]}
